From the supplement of paper PMC11417369
± gives the standard deviation of the averaged measurements. This is one part of the list.

Each sequence was assayed on PfAP2-I AP2 domain 3 (GST-tagged) (assay: gcPBM binding intensity (ln(normalized median fluorescence intensity)); higher = stronger DNA binding).
Outline: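 After 1 h on an Agilent 4 × 180k array of primer-extended double-stranded 36-bp intergenic genomic probes and negative controls, bound GST-tagged P. falciparum DNA-binding domains were detected with Alexa488 anti-GST antibody and scanned at 488 nm. The domains had been expressed in E. coli, and binding took place in 1× PBS with 1% milk, 0.2 mg/ml BSA, 0.5% salmon testes DNA and 0.03% Triton X-100. Binding intensity is the highest Masliner-normalised natural-log median intensity across replicate spots of either probe orientation.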

| Sequence | gcPBM binding intensity (ln) |
| --- | --- |
| AAAATAAATAAAAAAAGTACATATATAATTTATAAA [XGTACX_site2411] | 7.75 ± 0.39 |
| AAAATACACGCATACACACACACACCGACACATATA [CACACA_site4523] | 8.15 ± 0.51 |
| TGTTGTGATATATTAAAATCGTCCCTTATAATTTTA [GTGCAC_negctrl_site595] | 7.66 ± 0.52 |
| TAATATTATATTTATAGTACATATAATATATATATA [XGTACX_site2964] | 8.79 ± 0.35 |
| GAACACTAATAATGTTGTACACGTAATTATATATTT [XGTACX_site777] | 8.04 ± 0.36 |
| AAACACACACACAAATGTACATATATATATATATTT [XGTACX_site5090] | 7.92 ± 0.51 |
| TTTTCTTAATATTTCGTTTTACATAAACCTTTTAAA [CACACA_negctrl_site660] | 7.91 ± 0.73 |
| AATATAATATTATATAGTACATATTTCTTTTATTTT [XGTACX_site22] | 7.88 ± 0.23 |
| TATATATATATAAGTAGTACAATAATATATTATTTT [XGTACX_site6450] | 9.09 ± 0.042 |
| TTTTACATCATATATAGTACATATATTATACATATA [XGTACX_site8590] | 7.97 ± 0.53 |
| AATAATAATGCTTTAACTTTGTTGTTATTTAGAATA [CACACA_negctrl_site1144] | 7.36 ± 0.59 |
| TATAAATAAAAGTGTACACACATTAAAATCAAACGT [CACACA_site5316] | 8.4 ± 0.39 |
| TCCATGCATTGACACACACACAAAAAAAAATTCTTT [CACACA_site7847] | 8.52 ± 0.3 |
| TTTATTTATTTATGGACACACATACAAATCTTCCAG [CACACA_site4676] | 7.88 ± 0.61 |
| CATACATATATACATACACACACATATAACCAATGT [CACACA_site8679] | 7.99 ± 0.54 |
| TTTGTATTACGTTTGTGTACATATACAATGTGTTTT [XGTACX_site7708] | 7.82 ± 0.4 |
| TATTTTTATTTTTAAACCATATATATATATATATAT [CACACA_negctrl_site1560] | 9.46 ± 0.32 |
| TATAATGATGATGATAGTACGTATGAGTAAGAAAAA [XGTACX_site31] | 8.44 ± 0.62 |
| ATAAAAATATTTATTACACACATAAGCAAAAAAAAA [CACACA_site3484] | 8.02 ± 0.81 |

| Sequence | gcPBM binding intensity (ln) |
| --- | --- |
| TATAGTTTCATTCTTTGTACATATATATTATTATTA [XGTACX_site8527] | 7.98 ± 0.45 |
| AATGTGCAAACAAACTGTACTTTTTTTTTTTTTTTT [XGTACX_site928] | 9.46 ± 0.22 |
| AGATTTATTCATTCATGTACTTATTTATTTTATTTT [XGTACX_site6702] | 7.73 ± 0.4 |
| TATGAGAAAAAAAGTACATGCACAAAATGTATATGT [TGCATGCA_site789] | 8.46 ± 0.64 |
| ATTATATAAACCAAATGTACAAAAAGGTCGTAGTGG [XGTACX_site1298] | 8.06 ± 0.59 |
| CAACATTGTTCCTATTGTACATGAACTGTTCATACG [XGTACX_site4070] | 7.65 ± 0.61 |
| ATTATTAAGGTTTATTCAAAAAAGACGTTTTTAAAT [CACACA_negctrl_site1059] | 7.38 ± 0.63 |
| AGACACGTATACGATGCACACGTATGCTTTATATAT [CACACA_site9363] | 8.16 ± 0.61 |
| GACATATATACCAAACGTACATATGTGCAAGCATAA [XGTACX_site3089] | 8.35 ± 0.34 |
| TTGGCTATAGCCAATTGTACTTTTTCTCTTTGGCTT [XGTACX_site1119] | 7.5 ± 0.25 |
| TCTTGATTAACTTAAAAAAAAAAAAAAAAAAAAAAA [CACACA_negctrl_site458] | 8.05 ± 0.83 |
| CATATAATAAATAATTGTACTTGATATAATATTATG [XGTACX_site3562] | 7.49 ± 0.42 |
| TATATTTGTGCGTGTACACATTTGAAAAAATATATA [CACACA_site5079] | 8.49 ± 0.12 |
| GCTTAATACAGAATAACACACAAAATAAATAAATAA [CACACA_site4041] | 7.88 ± 0.61 |
| TTTTTTTTTTTTTTTGCACACTTAAATTTGGTGGCT [CACACA_site5319] | 9.54 ± 0.16 |
| TATATAATTATTTTTTGTACTCATAATAATATGAAA [XGTACX_site289] | 7.83 ± 0.18 |
| AATAATAATAAAAAGGTGCTGAAATATTTTTATTAT [GTGCAC_site9763] | 9.19 ± 0.13 |
| ATAAATTATAATAACTGTACAAAAATAATATATTCA [XGTACX_site1856] | 7.66 ± 0.44 |
| ATATGTACAAAATAAGCACACACAAAAAAAAAAAAA [CACACA_site8984] | 8.42 ± 0.37 |

| Sequence | gcPBM binding intensity (ln) |
| --- | --- |
| TTTTTTTTTTTTTTTTGTACATAAATTTTTATTAGA [XGTACX_site6409] | 8.06 ± 0.59 |
| AAAAAAAAAAAAAATATATATATATATATATATATA [CACACA_negctrl_site540] | 9.755 ± 0.021 |
| TTAAAATTATAATACGTACACACCTTATCTTTTTGG [CACACA_site278] | 8.03 ± 0.57 |
| ATATATAACGGGCACACACACATTTACGTATGAATA [CACACA_site1833] | 8.31 ± 0.49 |
| GGCGTATGTGTATATACACACCCACGTATATATATA [CACACA_site9046] | 8.79 ± 0.3 |
| TGTTGTTTTATGTTGTATTGTAATATATTATATTAT [XGTACX_negctrl_site46] | 7.95 ± 0.57 |
| TTAGGATTGAAGAGTTGTACATACCTCTTATTTGTT [XGTACX_site1376] | 7.55 ± 0.52 |
| TATAAAATGTAATCTGAACACACATATTTTTTTAAT [CACACA_site8521] | 7.43 ± 0.43 |
| ATCATATATTATTTATGTACTTATTTATAATAATAT [XGTACX_site8257] | 7.8 ± 0.26 |
| AAATATATTTCTTTTTTTCTTATTATTAATTTGCTT [CACACA_negctrl_site1483] | 7.41 ± 0.67 |
| TATAGATTTATATACACATGCATTTTGGTAAAGAAA [TGCATGCA_site953] | 8.11 ± 0.45 |
| TTTATTTATTATTATGTACACACTATATTAAAACAT [CACACA_site700] | 8.11 ± 0.42 |
| TTATAATAAATATTCATATGTTCAAATATATATATA [CACACA_negctrl_site624] | 8.91 ± 0.28 |
| ATTGTAAGTAGACACACACACATATAGATGTATATA [CACACA_site6463] | 7.68 ± 0.43 |
| TATTTTTTTAATAACTGTACTTTTTTGTCAAATGGA [XGTACX_site4179] | 7.77 ± 0.4 |
| TAAGTTTTGTTCTTTTGTACATATAAGTATAGATCG [XGTACX_site4735] | 7.71 ± 0.28 |
| AATGTTTTTGTGAGATGTATAAATTTTATTTTATTT [XGTACX_negctrl_site413] | 7.61 ± 0.52 |
| AAAAAAATAATGTACACACACATATAGGTTTATATA [CACACA_site192] | 7.95 ± 0.071 |
